Test results published in the supplement of paper PMC4604168 (melanoma cell lines).
The other results are listed elsewhere or left out. Most values come without repeats; read them as rough.

Experiments:
Assay in all cases: cell count relative to DMSO control; melanoma cells; higher = more viable cells
Conditions in all cases: library dose: low library concentration; 72 h
MZ2-MEL = test system: MZ2-MEL
MeWo = test system: MeWo
RPMI7951 = test system: RPMI7951
RVH-421 = test system: RVH-421
SkMel28 = test system: SkMel28
SkMel2 = test system: SkMel2
SkMel30 = test system: SkMel30
SkMel5 = test system: SkMel5
UACC257 = test system: UACC257
UACC62 = test system: UACC62
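Note: cell number obtained by counting DAPI-stained nuclei in high-throughput microscope images with image analysis software, screen run in 1,536-well plates.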

| SMILES | cell count (MZ2-MEL) | cell count (MeWo) | cell count (RPMI7951) | cell count (RVH-421) | cell count (SkMel28) | cell count (SkMel2) | cell count (SkMel30) | cell count (SkMel5) | cell count (UACC257) | cell count (UACC62) |
| --- | --- | --- | --- | --- | --- | --- | --- | --- | --- | --- |
| Clc1ccc(Nc2nnc(Cc3ccncc3)c3ccccc23)cc1 [vatalanib] + O=c1cc(-c2cccc3c2Sc2ccccc2S3)oc(N2CCOCC2)c1 [KU55933] (first compound 2 µM, partner dose 1 µM) | 93.6% | 100% | 86.6% | 117% | 88% | 106% | 114% | 97.8% | 87.4% | 91% |
| C#Cc1cccc(Nc2ncnc3cc(OCCOC)c(OCCOC)cc23)c1 [erlotinib] + NCC(=O)Nc1ccc(-n2nc(C(F)(F)F)cc2-c2ccc3c(ccc4ccccc43)c2)cc1 [OSU03012] (first compound 0.8 µM, partner dose 1 µM) | 91.1% | 60.4% | 102% | 96.2% | 89.3% | 81.9% | 65.7% | 92.8% | 75.4% | 82.9% |
| C#Cc1cccc(Nc2ncnc3cc(OCCOC)c(OCCOC)cc23)c1 [erlotinib] + CN(NC(=O)CC(=O)NN(C)C(=S)c1ccccc1)C(=S)c1ccccc1 [STA4783] (first compound 0.8 µM, partner dose 0.006 µM) | 102% | 78.4% | 97.1% | 84.7% | 111% | 107% | 105% | 97.8% | 87.7% | 84.3% |
| Clc1ccc(Nc2nnc(Cc3ccncc3)c3ccccc23)cc1 [vatalanib] + Oc1nc(-c2ccc(C(F)(F)F)cc2)nc2c1CSCC2 [XAV939] (first compound 2 µM, partner dose 2 µM) | 94.5% | 86% | 70.6% | 89.9% | 96.1% | 104% | 113% | 81.1% | 76.3% | 84.8% |
| OCc1c[nH]c2ccccc12 [Indole-3-carbinol] + O=C(CCCCCCC(=O)Nc1ccccc1)NO [vorinostat] (first compound 0.8 µM, partner dose 0.08 µM) | 98% | 91.2% | 100% | 104% | 86.2% | 107% | 149% | 93.6% | 85.3% | 101% |
| COCC[n+]1c2c(n(Cc3cnccn3)c1C)C(=O)c1ccccc1C2=O + NCC(=O)Nc1ccc(-n2nc(C(F)(F)F)cc2-c2ccc3c(ccc4ccccc43)c2)cc1 [OSU03012] (first compound 0.0004 µM, partner dose 1 µM) | 57% | 59.7% | 76.2% | 88.4% | 73% | 63.2% | 44.3% | 77% | 85.8% | 83.5% |
| O=C(CCCCCCC(=O)Nc1ccccc1)NO [vorinostat] + CC(C)(C)c1cnc(CSc2cnc(NC(=O)C3CCNCC3)s2)o1 [SNS-032] (first compound 0.08 µM, partner dose 0.01 µM) | 109% | 94.2% | 89% | 99.8% | 82.8% | 90.7% | 105% | 102% | 91.3% | 98.5% |
| O=C(CCCCCCC(=O)Nc1ccccc1)NO [vorinostat] + CC1(C)NC(=O)N(c2ccc([N+](=O)[O-])c(C(F)(F)F)c2)C1=O [nilutamide] (first compound 0.08 µM, partner dose 1 µM) | 111% | 97.9% | 112% | 99.6% | 92.3% | 105% | 111% | 92.3% | 94.9% | 110% |
| Clc1ccc(Nc2nnc(Cc3ccncc3)c3ccccc23)cc1 [vatalanib] + CC(C)CCN1c2nc(Nc3cc(F)c(O)c(F)c3)ncc2N(C)C(=O)C1C [BID1870] (first compound 2 µM, partner dose 0.2 µM) | 98.3% | 79.5% | 96.9% | 75.9% | 76.5% | 101% | 115% | 85.8% | 79.8% | 80.7% |
| C#Cc1cccc(Nc2ncnc3cc(OCCOC)c(OCCOC)cc23)c1 [erlotinib] + O=C(CCCCCCC(=O)Nc1ccccc1)NO [vorinostat] (first compound 0.8 µM, partner dose 0.08 µM) | 99.6% | 72.8% | 101% | 89.6% | 73.2% | 94.5% | 94.4% | 87.9% | 79.6% | 78.6% |
| Clc1ccc(Nc2nnc(Cc3ccncc3)c3ccccc23)cc1 [vatalanib] + C=CCn1c(=O)c2cnc(Nc3ccc(N4CCN(C)CC4)cc3)nc2n1-c1cccc(C(C)(C)O)n1 [MK1775] (first compound 2 µM, partner dose 0.02 µM) | 94.2% | 82.4% | 91% | 81% | 86.7% | 78.3% | 100% | 65.7% | 58.8% | 78.2% |
| Clc1ccc(Nc2nnc(Cc3ccncc3)c3ccccc23)cc1 [vatalanib] + COc1cc(N2CCC(N3CCN(C)CC3)CC2)ccc1Nc1ncc(Cl)c(Nc2ccccc2S(=O)(=O)C(C)C)n1 [NVP-TAE684] (first compound 2 µM, partner dose 0.08 µM) | 101% | 67.3% | 101% | 93% | 82.3% | 107% | 92.6% | 95.5% | 80.2% | 86.5% |
| COCC[n+]1c2c(n(Cc3cnccn3)c1C)C(=O)c1ccccc1C2=O + O=C(O)c1ccc(-c2c[nH]c3ncc(-c4ccccc4)cc23)cc1C1CCCC1 [GSK650394] (first compound 0.0004 µM, partner dose 0.16 µM) | 41.3% | 84.3% | 82.2% | 96.9% | 82.2% | 86.7% | 83.8% | 62.2% | 64.6% | 90% |
| Cn1c(Nc2ccc(C(F)(F)F)cc2)nc2cc(Oc3ccnc(-c4ncc(C(F)(F)F)[nH]4)c3)ccc21 + NCC(=O)Nc1ccc(-n2nc(C(F)(F)F)cc2-c2ccc3c(ccc4ccccc43)c2)cc1 [OSU03012] (first compound 0.08 µM, partner dose 1 µM) | 81.6% | 50.9% | 68.7% | 72.7% | 61.5% | 59.7% | 37.7% | 72.7% | 48.5% | 47.4% |
| OCc1c[nH]c2ccccc12 [Indole-3-carbinol] + C[C@@H]1CCN(C(=O)CC#N)C[C@@H]1N(C)c1ncnc2[nH]ccc12 [CP690550] (first compound 0.8 µM, partner dose 1 µM) | 102% | 103% | 108% | 101% | 102% | 89.3% | 113% | 95.6% | 99.1% | 102% |
| OCc1c[nH]c2ccccc12 [Indole-3-carbinol] + CCCCCCCCCCCC1=C(O)C(=O)C=C(O)C1=O [Embelin] (first compound 0.8 µM, partner dose 1.2 µM) | 101% | 103% | 86.3% | 129% | 106% | 106% | 97.7% | 100% | 83.6% | 100% |
| OCc1c[nH]c2ccccc12 [Indole-3-carbinol] + COc1cc2c(Oc3ccc4[nH]c(C)cc4c3F)ncnc2cc1OCCCN1CCCC1 [cediranib] (first compound 0.8 µM, partner dose 0.4 µM) | 97.8% | 91.8% | 103% | 79.5% | 94% | 91.9% | 104% | 95.6% | 83.7% | 87.9% |
| Cn1c(Nc2ccc(C(F)(F)F)cc2)nc2cc(Oc3ccnc(-c4ncc(C(F)(F)F)[nH]4)c3)ccc21 + O=C(Nc1cccc(Cl)c1)Nc1ncc(CCNc2ncnc3ccsc23)s1 [SNS314] (first compound 0.08 µM, partner dose 0.0008 µM) | 68.5% | 73.2% | 58.6% | 54.1% | 66.3% | 68% | 42.4% | 69.3% | 58.9% | 51.9% |
| O=C(CCCCCCC(=O)Nc1ccccc1)NO [vorinostat] + NCC(=O)Nc1ccc(-n2nc(C(F)(F)F)cc2-c2ccc3c(ccc4ccccc43)c2)cc1 [OSU03012] (first compound 0.08 µM, partner dose 1 µM) | 91.3% | 56.5% | 107% | 109% | 89% | 65% | 54.3% | 88.2% | 88.7% | 89.8% |
| Clc1ccc(Nc2nnc(Cc3ccncc3)c3ccccc23)cc1 [vatalanib] + O=C(CCCCCCC(=O)Nc1ccccc1)NO [vorinostat] (first compound 2 µM, partner dose 0.08 µM) | 99.9% | 79.3% | 101% | 113% | 88.2% | 82.5% | 101% | 78.8% | 96.4% | 103% |
| OCc1c[nH]c2ccccc12 [Indole-3-carbinol] + Oc1nc(-c2ccc(C(F)(F)F)cc2)nc2c1CSCC2 [XAV939] (first compound 0.8 µM, partner dose 2 µM) | 101% | 110% | 86.2% | 127% | 101% | 93% | 108% | 83.9% | 89.7% | 103% |
| OCc1c[nH]c2ccccc12 [Indole-3-carbinol] + O=C(Nc1cccc(Cl)c1)Nc1ncc(CCNc2ncnc3ccsc23)s1 [SNS314] (first compound 0.8 µM, partner dose 0.0008 µM) | 105% | 107% | 124% | 104% | 90.4% | 114% | 136% | 108% | 86.9% | 87.8% |
| COCC[n+]1c2c(n(Cc3cnccn3)c1C)C(=O)c1ccccc1C2=O + OCCn1cc(-c2cnc3nnn(Cc4ccc5ncccc5c4)c3n2)cn1 [PF04217903] (first compound 0.0004 µM, partner dose 1 µM) | 52.8% | 107% | 84% | 136% | 93.2% | 95.1% | 99.1% | 66.7% | 93.4% | 93.2% |
| O=C(CCCCCCC(=O)Nc1ccccc1)NO [vorinostat] + NC(=O)Nc1cc(-c2cccc(F)c2)sc1C(=O)N[C@H]1CCCNC1 [AZD7762] (first compound 0.08 µM, partner dose 0.02 µM) | 105% | 96.7% | 73.6% | 92.4% | 83% | 117% | 97.6% | 106% | 128% | 91.5% |
